The values below come from PubChem BioAssay AID1508642 (National Center for Advancing Translational Sciences (NCATS), 2021).

About 200 (0.47%) of roughly 43,000 compounds were called active. Not shown: some 12% with an inconclusive outcome. The call rests on the fitted dose curve; in most records, active means well fitted cell-killing curve with a large enough effect; inconclusive means small, poorly fitted or top-dose-only effect, or effect the other way; inactive means flat fitted curve, though single readings scatter. This is one part of the list.
On the % scale 0 is the no-effect control and ±100 the full control effect.

The assay in a line: Cell viability qHTS assay in S16 Pmp22-F2sN cells. Further: nearly all actives have a fitted effect of over 65% in size. To be noted: S16 Pmp22-F2sN Schwann cells viability, CellTiter-Glo, 24 h; series mostly up to 57.5 µM; activity change, negative = cytotoxicity: at the top concentration. The gist of the method: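 S16 Pmp22-F2sN Schwann cells (500-1,000/well) in phenol-red-free DMEM with 10% FBS received 23 nL compound by pin tool for 24 h at 37 °C. Viability was then read as CellTiter-Glo luminescence after 15 min at room temperature.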
Consider `CCc1c(-c2ccccc2)nc2ccccc2c1C(=O)NCc1ccc(C)cc1`, for which the “activity change, negative = cytotoxicity” value is inactive: -14%.
Under `CN(C1CCCCC1)S(=O)(=O)c1ccc2c(c1)c(=O)c(C(=O)N1CCN(c3ccccc3F)CC1)cn2C` stands inactive: -0.937%; under `Cc1cc(C)cc(NS(=O)(=O)c2ccc3[nH]cc(C(=O)NCc4ccccc4Cl)c(=O)c3c2)c1`, inactive: 10.6%.
Under `COc1cc(NC(=O)Cn2c(=O)n(Cc3ccco3)c(=O)c3oc4ccccc4c32)cc(OC)c1` stands inactive: -2.6%; under `CCOc1ccc(NC(=O)c2cc(=O)c3ccc(C)c(C)c3o2)cc1`, inactive: 2.41%; under `Cn1cnc(S(=O)(=O)N2CCC(C(=O)N3CCN(c4ccccc4F)CC3)CC2)c1`, inactive: -0.545%.
As for `CSc1cccc(NS(=O)(=O)c2cn(C)c(C)n2)c1`, the figure is inactive: -5.74%; as for `Cc1cccc(N(CC(=O)Nc2ccccc2C(F)(F)F)S(=O)(=O)c2ccccc2)c1C`, inactive: 7.3%.
`O=C(Nc1ccc(F)cc1)c1ccc2c(=O)n3c(nc2c1)CCCCC3`: the “activity change, negative = cytotoxicity” value was inactive: -26.2%.
Under `COc1ccc(OC)c(C2CC(=O)Oc3c2c(=O)n(C)c2ccccc32)c1` (stereo not drawn) stands inactive: -13.8%; under `COc1ccc(Cl)cc1NC(=O)c1cn(C2CCCC2)c(=O)c2c1c1ccccc1n2C`, inactive: -0.448%.
`COc1ccccc1C(=O)NC1(C(F)(F)F)C(=O)Nc2c1c(=O)[nH]c(=O)n2-c1ccc(F)cc1` (stereo not drawn): the “activity change, negative = cytotoxicity” value is inactive: 5.29%.
Under `Cc1cccc(Cn2c(-c3cccc(Br)c3)nc3ccccc32)c1` stands inactive: 0.0374%.
For the compound `CN(C)CCNC(=O)Cn1ccc2cc(S(=O)(=O)N3CCCCCC3)ccc21`, the “activity change, negative = cytotoxicity” value is inactive: -4.35%.
On to `Cc1cc(Cl)ccc1OCC(=O)N(Cc1ccco1)Cc1ccccc1F`, for which the “activity change, negative = cytotoxicity” value was inactive: -1.02%.
Turning to `COCCCNC(=O)CSc1nc2c(sc3ccccc32)c(=O)n1CCc1ccc(OC)c(OC)c1`, the “activity change, negative = cytotoxicity” value was inactive: 25%.
Under `CCOc1ccc(CNC(=O)C2CCCN(c3nnc(C)c4c(C)n(-c5ccccc5)nc34)C2)cc1` (stereo not drawn) stands inactive: -28%.
Under `CCOc1cc(C2NC(=O)c3c(sc4c3CCN(C)C4)N2)ccc1OC(=O)c1ccc(Br)cc1` (stereo not drawn) stands inactive: 11.8%.
For `COc1ccc(-c2noc(-c3ccc(N4CCCC4)c([N+](=O)[O-])c3)n2)cc1OC`, the “activity change, negative = cytotoxicity” value was inactive: -4.74%.
Under `CCc1ccc(-n2nc(C)c3c(C(=O)N4CCN(c5ccccc5)CC4)cc(C)nc32)cc1` stands inactive: 1.65%; under `COc1ccc(C)cc1NC(=O)c1cc2c(=O)n3cccc(C)c3nc2s1`, inactive: 9.52%; under `CCC(=O)N1CCCc2cc(S(=O)(=O)N3CCC(C(=O)NCc4ccc(F)cc4)CC3)ccc21`, inactive: -3.41%.
Consider `Cc1cccc(C)c1-n1ncc(C(=O)O)c1C1CCN(C(=O)OC(C)(C)C)CC1`, for which the “activity change, negative = cytotoxicity” value was inactive: 23.1%.
For `Cc1nn2c(C)c(C(=O)NC(C)c3ccccc3)cnc2c1-c1ccc(F)cc1` (stereo not drawn), the “activity change, negative = cytotoxicity” value was inactive: -16.9%.
As for `COc1ccc(NC(=O)c2ccco2)cc1NC(=O)C(C)(C)Oc1ccc(Cl)cc1`, the figure is inactive: 4.54%.
Take `CCOc1ccc(NC(=O)Cn2cnc3sc(C)c(S(=O)(=O)N4CCN(c5ccccc5OC)CC4)c3c2=O)cc1`: the “activity change, negative = cytotoxicity” value was inactive: -19.9%.
Under `N#Cc1ccc(-c2cccs2)nc1SCc1ccc(Br)cc1` stands inactive: 3.05%.
Under `COc1ccc(-n2nc(C(=O)N3CCCCC3C)c3c4ccccc4n(C)c3c2=O)cc1Cl` (stereo not drawn) stands inactive: 6.49%; under `COc1ccc(CNC(=O)CN(C)S(=O)(=O)c2ccc3nc(C)sc3c2)cc1`, inactive: -0.159%.
Under `COc1cccc(C(=O)Nc2ccccc2C(=O)OCc2cc(=O)n3c4c(sc3n2)CCCC4)c1` stands inactive: 1.41%; under `CC(C)N(C(=O)CSc1cn(CC(=O)N2CCCCCC2)c2ccccc12)C(C)C`, inactive: -1.44%.
Turning to `Cc1coc2c(C)c3oc(=O)c(CCC(=O)NCCc4ccccc4F)c(C)c3cc12`, the “activity change, negative = cytotoxicity” value is inactive: 29.5%.
As for `Cc1cc2c(cc1S(=O)(=O)Nc1cccc(C#N)c1)OCC(=O)N2`, the figure is inactive: -4.76%.
As for `COc1ccc(NC(=O)Cn2c(=O)n(CCC(=O)NCC3CCCO3)c(=O)c3cc(OC)c(OC)cc32)cc1` (stereo not drawn), the figure is inactive: -1.97%; as for `CN(Cc1ccccc1)C(=O)c1ccc(CSc2nc3cccnc3n2Cc2ccccc2F)cc1`, inactive: -10.3%.
On to `COc1ccccc1Nc1sc(C(=O)c2ccc(F)cc2)c(N)c1S(=O)(=O)c1ccc(C)cc1`, for which the “activity change, negative = cytotoxicity” value is inactive: -0.278%.
As for `COc1cccc(/C=C/c2nc(C#N)c(N3CCC(C(N)=O)CC3)o2)c1`, the figure is inactive: 2.98%; as for `CCOc1ccc(CCNC(=O)c2cn(-c3ccc(OC)cc3)c(=O)c3ccccc23)cc1OCC`, inactive: 6.23%.
For the compound `Cc1ccc(C2C=C(c3ccccc3)Nc3nc(NS(=O)(=O)c4ccccc4)nn32)cc1` (stereo not drawn), the “activity change, negative = cytotoxicity” value was inactive: 9.22%.
Under `O=C(Cn1nnnc1-c1ccccc1F)Nc1ccc(OC(F)(F)F)cc1` stands inactive: 1.59%; under `COc1ccc(CNC(=O)CCc2c(C)nc3c(c(C)nn3-c3ccccc3)c2C)cc1`, inactive: -2.74%; under `CCOC(=O)c1c(C)n(-c2ccc(OC)cc2)c2ccc(OC(=O)COc3ccccc3)cc12`, inactive: -18%.
As for `O=C(CSc1nccn1Cc1ccc(F)cc1)Nc1nc2ccccc2s1`, the figure is inactive: -9.84%; as for `CCN(Cc1ccccc1)C(=O)C1CCN(S(=O)(=O)c2ccc3c(c2)CCCN3C(C)=O)CC1`, inactive: -2.76%.
As for `COc1cc(NC(=O)C2=CC(c3ccc(F)cc3)=NS(=O)(=O)N2C)cc(OC)c1OC`, the figure is inactive: 1.73%; as for `CC(C)c1nnc(N2C(=O)c3oc4ccccc4c(=O)c3C2c2ccccc2F)s1` (stereo not drawn), inactive: 10%; as for `Cc1ccc(C2CC(=O)Nc3cc4c(cc32)OCCO4)cc1Br` (stereo not drawn), inactive: -1.52%.
With `COCCNC(=O)Cn1ccc2cc(S(=O)(=O)N3CCCCCC3)ccc21`, the “activity change, negative = cytotoxicity” value is inactive: 0.188%.
As for `CCn1c(=O)c2c(nc3n2CCN3c2ccc(OC)cc2)n(C)c1=O`, the figure is inactive: -29.8%; as for `Cc1ccc(-c2noc(CCC(=O)N(C)c3ccccc3F)n2)cc1`, inactive: -1.88%; as for `CCOc1ccc(CCNC(=O)c2cc(=O)[nH]c3ccc(S(=O)(=O)N4CCCCC4C)cc23)cc1OCC` (stereo not drawn), inactive: -10.1%.
Under `Fc1ccccc1-c1nc(N2CCN(c3cccc(Cl)c3)CC2)c2ccccc2n1` stands inactive: 2.02%.
As for `CC(C)(C)C1CCc2c(sc(NC(=O)C3c4ccccc4Oc4ccccc43)c2C(N)=O)C1` (stereo not drawn), the figure is inactive: 3.21%.
Consider `COc1ccc(OC)c(CNC(=O)Nc2cn(CC(C)C)c(=O)c3ccccc23)c1`, for which the “activity change, negative = cytotoxicity” value is inactive: -5.14%.
Under `CCC(=O)N1c2ccc(S(=O)(=O)CCC(=O)NCc3ccccc3OC)cc2CC1C` (stereo not drawn) stands inactive: 11.9%; under `Cc1ccc(CN(C(=O)COc2ccccc2Cl)c2ccccn2)o1`, inactive: 5.14%; under `Cc1cccc(NC(=O)Cn2c(=O)n(Cc3ccc4c(c3)OCO4)c(=O)c3oc4ccccc4c32)c1C`, inactive: 10.9%.
As for `CCOc1ccc(NC(=O)Cn2c(=O)n(Cc3ccc4c(c3)OCO4)c(=O)c3ccc(C(=O)NC4CCCCC4)cc32)cc1`, the figure is inactive: 1.44%; as for `Cc1ccc(CNS(=O)(=O)c2ccc(C(=O)N(C)C)s2)cc1`, inactive: 31.6%.
With `COC(=O)c1nnn(CC(=O)NC(=O)Nc2ccc(F)cc2)c1C(=O)OC`, the “activity change, negative = cytotoxicity” value is inactive: -3.52%.
Under `CC(=O)N1CCc2cc(Br)cc(S(=O)(=O)N3CCC(C(=O)Nc4cccc(C)c4C)CC3)c21` stands inactive: 13.9%.
On to `Cc1ccc(CNC(=O)Nc2cc(C(=O)NCc3cccc(F)c3)ccc2N2CCCC2)cc1`, for which the “activity change, negative = cytotoxicity” value is inactive: -1.53%.
As for `O=C(Nc1ccc(S(=O)(=O)N2CCC(c3nc4ccccc4s3)CC2)cc1)c1ccccc1`, the “activity change, negative = cytotoxicity” value was inactive: 6.21%.
As to `CC1CCCCN1Cc1c(O)ccc2c(=O)c(-c3ccccc3Cl)c(C(F)(F)F)oc12` (stereo not drawn), the “activity change, negative = cytotoxicity” value is inactive: 1.13%.
With `CCCCn1c(CNC(=O)C23CC4CC(CC(C4)C2)C3)nnc1SCC(=O)Nc1ccc(C)cc1`, the “activity change, negative = cytotoxicity” value is inactive: -8.26%.
As for `COCCSc1nc2c([nH]c3ccccc32)c(=O)n1-c1ccc(OC)c(OC)c1`, the “activity change, negative = cytotoxicity” value was inactive: 11.3%.
As for `CCc1ccc(S(=O)(=O)NCc2ccc3c(c2)CCN3C(=O)c2ccc(C)cc2)cc1`, the figure is inactive: -15.8%; as for `CC1=C(C(=O)Nc2ccccc2C)C(c2cccs2)n2nc(SCc3ccccc3)nc2N1` (stereo not drawn), inactive: 20.2%; as for `CCc1ccc(CNC(=O)C2COc3ccc(OC)cc3C2)cc1` (stereo not drawn), inactive: 7.24%.
As for `CCOC(=O)c1c(C)sc(-c2c(-c3ccccc3)[nH]c3[nH]c(=O)[nH]c(=O)c23)c1O`, the figure is inactive: 29.5%; as for `CN(Cc1ccccc1)C(=O)CSc1nnc(-c2cccc(Cl)c2)o1`, inactive: -11.5%; as for `COc1ccc(-c2noc(-c3ccc(N4CCOCC4)c([N+](=O)[O-])c3)n2)cc1`, inactive: 0.267%.
As for `Cc1scc(CN2CCN(c3ccccc3F)CC2)c1C`, the figure is inactive: 5.5%.
In the case of `CN(C(=O)CC(=O)Nc1ccc2nc3n(c(=O)c2c1)CCCCC3)c1ccccc1F`, the “activity change, negative = cytotoxicity” value is inactive: 8.84%.
As for `O=C(Cn1ncc2c(Cl)cccc21)NCc1cccc(Cl)c1`, the figure is inactive: -6.18%; as for `CCc1ccc(-n2nc(CO)c(C(=O)NCCOC)n2)cc1`, inactive: -2.15%.
On to `O=C(Cc1ccccc1)Nc1sc2c(c1C(=O)Nc1cccc(Cl)c1)CCCCC2`, for which the “activity change, negative = cytotoxicity” value is inactive: 14.2%.
Under `CC(C)(C)C1CCc2c(sc(NC(=O)c3cccc(Cl)c3)c2C(=O)NCc2ccco2)C1` (stereo not drawn) stands inactive: -2.51%; under `CC(=O)c1ccc(NC(=O)C2CCN(c3nnc(C)c4c(C)n(-c5ccccc5)nc34)CC2)cc1`, inactive: -5.24%; under `Cc1ccc(-c2cc(C(=O)N3CCN(S(=O)(=O)c4ccc(Br)cc4)CC3)[nH]n2)c(C)c1`, inactive: 9.06%.
As to `CC(C)OCCCn1c(=O)c2ccccc2n2c(-c3ccccc3)nnc12`, the “activity change, negative = cytotoxicity” value is inactive: 4.23%.
As to `Cc1ccc(S(=O)(=O)c2cn(Cc3ccccc3)c3cc(N4CCCCC4)c(F)cc3c2=O)cc1`, the “activity change, negative = cytotoxicity” value is inactive: 6.53%.
As for `CC(C)CCOc1ccc(Cn2c(=O)oc3ccccc32)cc1`, the figure is inactive: 0.403%; as for `COc1ccc(NC(=O)CSC2=Nc3ccccc3C3=NC(CC(=O)NCCc4ccccc4)C(=O)N23)cc1` (stereo not drawn), inactive: -11.6%; as for `O=C(NCc1ccco1)c1ccc(Cn2c(SCc3ccccc3)nc3cccnc32)cc1`, inactive: 8.9%.
Take `COc1ccc(NCc2cccn2-c2nnc(N3CCCCCC3)s2)cc1`: the “activity change, negative = cytotoxicity” value was inactive: 6.58%.
`COc1ccc(C(=O)c2cn(Cc3ccccc3F)c3cc4c(cc3c2=O)OCCO4)cc1OC`: the “activity change, negative = cytotoxicity” value is inactive: -13.9%.
As for `Cc1ccc(NC(=O)CN2C=NS(=O)(=O)c3ccccc32)cc1`, the figure is inactive: -1.03%.
Under `COc1ccc(-c2noc(CC(=O)N(C)c3cccc(C)c3)n2)cc1` stands inactive: 26.6%; under `CCOC(=O)COc1ccc(CC)cc1C(=O)c1ccn2nc(-c3ccc(F)cc3)cc2n1`, inactive: 5.96%.
Under `CCOC(=O)c1cnc2ccc(Br)cc2c1NCCN1CCOCC1` stands inactive: 23.2%.
For the compound `O=C(Nc1ccc(C(=O)OCc2cc(=O)n3nc(C4CC4)sc3n2)cc1)c1ccccc1`, the “activity change, negative = cytotoxicity” value is inactive: 3.93%.
As for `Cc1cccc(CNC(=O)c2cc3cc(S(=O)(=O)N4CCCCC4)ccc3n2C)c1`, the figure is inactive: -19.3%.
